Assay results taken from PubChem BioAssay AID202 (DTP/NCI, 2004).
Not every entry of the source has a single result; some have several. They are shown here; other results are not. An entry can have further records. Values given together differ for a reason that is not stated; they may come from other doses, times, organisms or constructs than stated.

System: HT29 xenograft, nude mice, s.c., tumor weight T/C%
Assay: NCI In Vivo Anticancer Drug Screen. Data for tumor model HT29;CX-1 Human Adenocarcinoma (MER+) (subcutaneous) in NU/NU Swiss (nude) mice
Settings: endpoint: optimum tumor weight change, higher = larger tumour
Experimental: The antitumor activity of compounds was measured in mice bearing transplantable tumors. Survival or tumor size were measured and the results are expressed as the measurement made in the treated group (T) divided by the measurement made in the vehicle treated control group (C). The tumor model used in this assay is HT29;CX-1 Human Adenocarcinoma (MER+) (subcutaneous) in NU/NU Swiss (nude) mice

For `O=C(O)C1(C(=O)O)CCC1.[NH2-].[NH2-].[Pt+2]`, which T/C (dose: 12.5 mg/kg/injection, schedule: Q04DX003 (ip), vehicle: dextrose) is on record?
Its T/C is 40 % of control and 101 % of control.

How did the T/C (dose: 400.0 mg/kg/injection, schedule: Q04DX003 (ip), vehicle: suspension in saline) turn out when `CC(=O)OCC1OC(n2ccc(N)nc2=O)C(OC(C)=O)C1OC(C)=O` (centres undefined) was run?
Its T/C is 39 % of control and 73 % of control.

And the T/C (dose: 800.0 mg/kg/injection, schedule: Q04DX003 (ip), vehicle: suspension in saline)?
Its T/C is 24 % of control and 104 % of control.

How did the T/C (dose: 400.0 mg/kg/injection, schedule: Q04DX003 (ip), vehicle: saline) turn out when `N=c1ccn2c(n1)OC1C(O)C(CO)OC12` (centres undefined) was run?
The T/C was 35 % of control and 85 % of control.

How did the T/C (dose: 50.0 mg/kg/injection, schedule: Q04DX003 (ip), vehicle: Klucel (hydroxypropylcellulose) (HPC)) turn out when `CC(=O)OCC(=O)[C@@]12OC(C)(C)O[C@@H]1C[C@H]1[C@@H]3CC(C=O)=C4C=C(OCCCl)CC[C@]4(C)[C@@]3(F)[C@@H](O)C[C@@]12C` was run?
Its T/C is 31 % of control and 78 % of control.

`CN(CO)c1nc(N(C)CO)nc(N(C)CO)n1` was tested. Which T/C (dose: 100.0 mg/kg/injection, schedule: Q01DX005 (ip), vehicle: Klucel (hydroxypropylcellulose) (HPC)) did it give?
The T/C was 62 % of control and 91 % of control.

And the T/C (dose: 200.0 mg/kg/injection, schedule: Q04DX005 (ip), vehicle: Klucel (hydroxypropylcellulose) (HPC))?
Its T/C is 56 % of control and 101 % of control.

Which T/C (dose: 300.0 mg/kg/injection, schedule: Q04DX003 (ip), vehicle: saline with Tween-80) does the source give for `C[C@]12CC[C@@H]3c4ccc(OC(=O)Cc5ccc(N(CCCl)CCCl)cc5)cc4CC[C@H]3[C@@H]1CC[C@@H]2OC(=O)Cc1ccc(N(CCCl)CCCl)cc1` here?
The T/C was 57 % of control and 109 % of control.

`CN(C)c1nc(N(C)C)nc(N(C)C)n1` was tested. Which T/C (dose: 60.0 mg/kg/injection, schedule: Q01DX005 (ip), vehicle: Klucel (hydroxypropylcellulose) (HPC)) did it give?
The T/C was 55 % of control and 83 % of control.
